Measured values from patent US20190381086A1 (Scripps Research, published 2019).

What was measured:
Test in all cases: His-tag pull-down
[1] = biological target: T1, His-tagged full-length human GlyRS (glycyl-tRNA synthetase) (human, UniProt P41250 55-739)
T1 construct: also called His-tagged GlyRS; purified human GlyRS protein; not shown: His tag
T1 sequence: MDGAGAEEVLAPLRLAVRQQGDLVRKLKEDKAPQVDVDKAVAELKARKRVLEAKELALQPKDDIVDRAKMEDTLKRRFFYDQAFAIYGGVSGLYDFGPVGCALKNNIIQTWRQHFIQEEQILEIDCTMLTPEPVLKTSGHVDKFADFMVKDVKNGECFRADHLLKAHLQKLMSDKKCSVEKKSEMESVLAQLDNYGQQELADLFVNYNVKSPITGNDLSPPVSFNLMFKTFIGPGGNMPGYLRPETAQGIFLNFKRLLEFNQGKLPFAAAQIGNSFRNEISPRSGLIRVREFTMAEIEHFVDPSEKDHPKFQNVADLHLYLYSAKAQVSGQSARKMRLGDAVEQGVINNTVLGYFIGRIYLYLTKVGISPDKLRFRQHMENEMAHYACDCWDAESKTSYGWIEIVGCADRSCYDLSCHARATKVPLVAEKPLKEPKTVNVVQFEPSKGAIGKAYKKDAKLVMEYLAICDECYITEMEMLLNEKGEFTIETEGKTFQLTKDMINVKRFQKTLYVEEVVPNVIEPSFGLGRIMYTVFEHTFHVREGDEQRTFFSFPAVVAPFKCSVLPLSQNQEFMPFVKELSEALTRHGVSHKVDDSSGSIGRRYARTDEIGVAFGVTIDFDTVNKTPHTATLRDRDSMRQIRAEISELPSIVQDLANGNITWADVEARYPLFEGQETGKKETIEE

[2] = biological target: T2, His-tagged human SerRS (seryl-tRNA synthetase) (human, UniProt P49591)
T2 construct: not shown: His tag

[3] = biological target: T3, His-tagged human TrpRS (tryptophanyl-tRNA synthetase) (human, UniProt P23381 1-471, limits assumed)
T3 construct: not shown: His tag
T3 sequence (looked up): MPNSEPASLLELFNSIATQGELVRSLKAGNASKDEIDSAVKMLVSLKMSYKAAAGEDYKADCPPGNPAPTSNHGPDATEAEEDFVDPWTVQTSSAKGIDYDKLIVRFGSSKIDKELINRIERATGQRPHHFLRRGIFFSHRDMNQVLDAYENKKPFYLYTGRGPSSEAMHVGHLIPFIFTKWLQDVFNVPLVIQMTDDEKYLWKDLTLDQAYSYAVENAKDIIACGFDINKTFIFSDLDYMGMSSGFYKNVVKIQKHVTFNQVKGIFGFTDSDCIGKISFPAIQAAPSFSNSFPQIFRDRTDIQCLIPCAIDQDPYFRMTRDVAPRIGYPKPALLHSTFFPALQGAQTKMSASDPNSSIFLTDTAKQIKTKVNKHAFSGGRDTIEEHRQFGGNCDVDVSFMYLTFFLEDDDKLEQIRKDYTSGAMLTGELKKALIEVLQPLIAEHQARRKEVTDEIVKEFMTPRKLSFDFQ

Measured: binding result

B1: SUMO1 (other)
chain: not shown
notes: Bought protein
no binding: [1] | [2] | [3]
